# Reference: PubChem BioAssay AID1508642 (National Center for Advancing Translational Sciences (NCATS), 2021)
# Among all 43,000 compounds or so, about 200 (0.47%) were called active. Another 12% or so got no clear call; they are omitted. The call rests on the fitted dose curve; in most records, active means well fitted cell-killing curve with a large enough effect; inconclusive means small, poorly fitted or top-dose-only effect, or effect the other way; inactive means flat fitted curve, though single readings scatter. The list shows a part of the results.
# Test: Cell viability qHTS assay in S16 Pmp22-F2sN cells; further: nearly all actives have a fitted effect of over 65% in size
# Conditions: S16 Pmp22-F2sN Schwann cells (luciferase reporters placed in the Pmp22 gene) viability, CellTiter-Glo, 24 h; series mostly up to 57.5 µM; activity change, negative = cytotoxicity: at the top concentration
# Outline: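 Seed 500-1,000 S16 Pmp22-F2sN cells per well in phenol-red-free DMEM with 10% heat-inactivated FBS; pin-add 23 nL compound; incubate 24 h at 37C; add CellTiter-Glo, wait 15 min protected from light; read luminescence.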
# On the % scale 0 is the no-effect control and ±100 the full control effect; potency means the concentration at half of the fitted maximal effect.
SMILES,"activity change, negative = cytotoxicity",Potency
Cc1ccc(-n2nc(C)c3c(C)cc(=O)n(CC(=O)Nc4cc(Cl)ccc4C)c32)cc1,inactive: -5.43%,–
Nc1ccc2oc(-c3ccccc3Br)nc2c1,inactive: -1.83%,–
COc1ccccc1NC(=O)Cn1cnc2ccc(S(=O)(=O)N3CCC(C)CC3)cc2c1=O,inactive: 5.78%,–
COc1ccc2oc(=O)c(C(=O)NCCc3c(C)[nH]c4ccc(C)cc34)cc2c1,inactive: 1.7%,–
COc1ccc(N(CC(=O)N2CCN(c3ccccc3F)CC2)S(=O)(=O)c2c(C)noc2C)cc1,inactive: -1.98%,–
Cc1ccc(CNC(=O)c2cc3c(=O)oc4ccc(C)cc4c3s2)cc1,inactive: 7.51%,–
Cc1ccccc1NC(=O)C(Cc1ccccc1)N1Cc2ccccc2C1=O (stereo unspecified),inactive: -8.88%,–
O=C(Nc1noc2ccccc12)c1cccc(Cl)c1Cl,inactive: 0.0499%,–
Cc1cccc(OCC(=O)Nc2ccc(S(=O)(=O)Nc3onc(C)c3C)cc2)c1C,inactive: 7.38%,–
Cc1ccc(NC(=O)C2CCCN(C(=O)c3cnn(-c4ccccc4)c3-n3cccc3)C2)cc1 (stereo unspecified),inactive: -1.48%,–
COc1ccc(NC(=O)Cn2c(=O)n(Cc3ccco3)c(=O)c3sc4ccccc4c32)c(OC)c1,inactive: 1.16%,–
CCOC(=O)c1ccc(OC(=O)c2cn(-c3ccc(C)cc3)c(=O)c3ccccc23)cc1,inactive: 0.21%,–
Cc1cc(OCC(=O)N(Cc2ccc(N(C)C)cc2)Cc2ccco2)cc(C)c1Cl,inactive: -19.8%,–
Cc1nn(-c2ccccc2)c(-n2cccc2)c1C(=O)N1CCN(c2ccccc2)CC1,inactive: -6.52%,–
COc1ccc(CNC(=O)c2cc3sccc3n2Cc2ccc(F)cc2)cc1,inactive: -14.6%,–
COCCCN1C(=O)c2[nH]nc(-c3cc(C)ccc3O)c2C1c1ccc(F)cc1 (stereo unspecified),inactive: -8.35%,–
Cc1ccccc1Nc1sc(C(=O)c2ccccc2)c(N)c1S(C)(=O)=O,inactive: 6.25%,–
CCc1ccc(NC(=O)CN2C(=O)C3CCCN3c3ccc(S(=O)(=O)N(CC)CC)cc32)cc1 (stereo unspecified),inactive: -0.877%,–
Cn1cc(S(=O)(=O)N2CCCCCC2)cc1C(=O)N1CCN(c2ccccc2F)CC1,inactive: 19.7%,–
Cc1ccc(-c2nc3cc(NC(=O)Cc4ccc(Cl)cc4)ccc3o2)cc1,inactive: 0.528%,–
COc1ccc2c(Sc3ccc(C)cc3)c(C(=O)NCC(C)c3ccccc3)[nH]c2c1 (stereo unspecified),inactive: -0.429%,–
CCOC(=O)c1ccc(N2CC3=C(C2=O)C(c2ccc(OC)cc2)NC(=O)N3C)cc1 (stereo unspecified),inactive: -10.6%,–
CCc1ccc(NC(=O)Cn2c(=O)n(CCCC(=O)NCc3ccccc3Cl)c(=O)c3ccccc32)cc1,inactive: 9.64%,–
Cc1cc(NC(=O)CSc2nc(-c3cccc(F)c3)nc3c2c(=O)n(C)c(=O)n3C)no1,inactive: 1.59%,–

SMILES,"activity change, negative = cytotoxicity",Potency
O=C(CCc1ccccc1)NCc1ccc2c(c1)CCN2C(=O)c1ccccc1,inactive: -2.52%,–
Nc1c(C(=O)Nc2ccc(C(F)(F)F)cc2)sc2nc(-c3cccs3)ccc12,inactive: -1.14%,–
COc1ccccc1-c1nnc(C2CCN(S(=O)(=O)c3ccc(CC(C)C)cc3)CC2)o1,inactive: -19.7%,–
COc1cccc(NC(=O)Cn2c(=O)n(-c3ccccc3)c(=O)c3ccc(C(=O)NCc4ccc5c(c4)OCO5)cc32)c1,inactive: -13.2%,–
COc1ccc(-n2c(SCC(=O)c3ccc(Cl)cc3)nc3c([nH]c4ccccc43)c2=O)cc1,inactive: 12.8%,–
COc1ccccc1N1CCN(c2ccc(=O)n(CC(=O)Nc3cc(F)ccc3C)n2)CC1,inactive: 6.07%,–
Cn1cc(C(=O)O)c(=O)c2cc(S(=O)(=O)N3CCOCC3)ccc21,–,active: 14.1 µM
CC(=O)N1CCc2c(sc3c2c(=O)n(CCc2ccccc2)c(=O)n3CC(=O)Nc2ccccc2F)C1,inactive: -13.7%,–
COc1ccccc1NC(=O)c1oc2ccccc2c1NC(=O)Cc1cccs1,inactive: -1.21%,–
COc1ccc(OCC(=O)Nc2ccc3c(c2)N(C)C(=O)c2ccccc2S3)cc1,inactive: -0.439%,–
COc1ccc(-c2cc(C(=O)Nc3c(C(=O)c4ccc(C)c(F)c4)oc4ccccc34)no2)cc1,inactive: -9.99%,–
Cc1ccc2nc(Cl)c3cc(C(=O)N4CCCC(C)C4)sc3c2c1 (stereo unspecified),inactive: -14.1%,–
CC(C)CN(CC(C)C)c1nnc(NC(=O)Nc2cccc(C(F)(F)F)c2)s1,inactive: -19.9%,–
CCOC(=O)c1cc(-c2ccc(C)cc2)n(CC(=O)Nc2cc(C)ccc2C)c1C,inactive: -2.56%,–
COc1ccc(-c2cc(C(F)(F)F)n3nc(C(=O)Nc4cccc(Cl)c4Cl)cc3n2)cc1OC,inactive: 0.743%,–
CCc1ccccc1NC(=O)c1cc(S(=O)(=O)N2CCC(C)CC2)cn1C,inactive: -2.57%,–
COC(=O)Cn1c(SCCOc2ccccc2Cl)nc2ccccc21,inactive: 10.3%,–
O=C(CCS(=O)(=O)c1nc(-c2ccc3c(c2)OCO3)cc(C(F)(F)F)n1)Nc1ccccc1C(F)(F)F,inactive: 16.1%,–
COc1ccc(C(C)=O)cc1CSc1nc(NCc2ccc(Cl)cc2)c2ccccc2n1,inactive: 0.644%,–
Cc1cccc(C)c1NC(=O)Cn1c(=O)n(CCC(=O)NCc2ccc3c(c2)OCO3)c(=O)c2sccc21,inactive: -1.25%,–
COc1ccc(-c2cc(C(F)(F)F)n3nc(C(=O)Nc4ccc(Cl)cc4C(F)(F)F)cc3n2)cc1OC,inactive: 1.81%,–
Cc1ccc(NC(=O)C2CCCN(c3nc4ccccc4s3)C2)c(C)c1 (stereo unspecified),inactive: -4.55%,–
COc1ccc(C(=O)N2CCN(CCc3ccccn3)CC2)cc1,inactive: 4.61%,–
Cc1ccc(NC(=O)c2cnc(SCC(=O)N3CCCc4ccccc43)n(C)c2=O)cc1C,inactive: -7.89%,–

SMILES,"activity change, negative = cytotoxicity",Potency
Cc1oc(-c2ccccc2)nc1Cn1c(=O)cc(-c2ccccc2)c2c(C)nn(C)c21,inactive: -4.13%,–
Cc1ccc(-c2nn3c(C)nnc3c3ccccc23)cc1S(=O)(=O)NC(C)(C)CO,inactive: 1.86%,–
Cc1ccccc1NC(=O)C1CCN(S(=O)(=O)c2cccc3nonc23)CC1,inactive: 13.1%,–
CCc1ccc(NC(=O)c2sc3nc(C)cc(C)c3c2NC(=O)c2ccccc2)cc1,inactive: -1.26%,–
COc1ccc(/C=C/C(=O)Nc2cccc(F)c2)cc1,inactive: -2.67%,–
CN(C)S(=O)(=O)c1ccc2c(c1)N(CC(=O)N1CCC(C(N)=O)CC1)CCS2,inactive: 11.1%,–
Cc1ccc(C)c(NC(=O)Cn2cc(S(=O)(=O)c3ccc(F)cc3)c(=O)c3cc(F)ccc32)c1,inactive: 3.69%,–
CCOc1ccc(NC(=O)c2cc(S(=O)(=O)N3CCC(C)CC3)cn2C)cc1,inactive: 11.4%,–
CC1CCCN(c2ncnc3c2nnn3C)C1 (stereo unspecified),inactive: 0.426%,–
O=C(Nc1ccc(C(F)(F)F)cc1)C1(c2cccs2)CCOCC1,inactive: 12%,–
CCCOC(=O)c1cccc(Nc2nc(C(=O)OCC)nc3ccccc23)c1,inactive: -27.1%,–
CCC1CN(C(=O)N2CCC(C(=O)NCc3ccccc3F)CC2)c2ccccc2O1 (stereo unspecified),inactive: 0.365%,–
Cc1cc(C)cc(NC(=O)c2cc(S(=O)(=O)N3CCCCC3)c[nH]2)c1,inactive: -1.81%,–
Cc1ccc(NC(=O)c2c(C)oc3ncnc(N4CCCCC4)c23)c(C)c1,inactive: 14%,–
CC(Oc1ccccc1F)C(=O)NCC1(N2CCOCC2)CCCCC1 (stereo unspecified),inactive: -8.32%,–
O=C(Nc1cc(-c2ccc(F)c(F)c2)no1)c1ccccc1F,inactive: -6.54%,–
Cc1cccc(N2CCN(C(=O)C3CCCN(C(=O)c4cc5sccc5n4C)C3)CC2)c1C (stereo unspecified),inactive: 10%,–
COc1ccc(N2CCN(c3ncnc4onc(C)c34)CC2)cc1,inactive: -19.9%,–
CCOc1ccccc1NC(=O)C1CCN(S(=O)(=O)c2cccc3nonc23)CC1,inactive: 0.814%,–
COCCNC(=O)CCn1c(=O)[nH]c2cc(OC)c(OC)cc2c1=O,inactive: 0.687%,–
CC1=C(C(=O)Nc2ccc(F)cc2)C(c2ccc(N(C)C)cc2)NC(=O)N1 (stereo unspecified),inactive: 6.02%,–
CCOc1ccc(CCNC(=O)Cn2ccc3cc(S(=O)(=O)N4CCCCCC4)ccc32)cc1,inactive: -10.4%,–
CCC1CN(C(=O)C2CCN(S(=O)(=O)c3c(C)noc3/C=C/c3ccc(C)cc3)CC2)c2cc(C)ccc2O1 (stereo unspecified),inactive: 1.74%,–
CCN(CC)CCCNC(=O)C(C)n1nc(C)n2c(cc3occc32)c1=O (stereo unspecified),inactive: 21.8%,–

SMILES,"activity change, negative = cytotoxicity",Potency
COc1ccc(Cl)cc1NC(=O)COC(=O)CC(C)(C)CC1=NS(=O)(=O)c2ccccc2N1,inactive: -14.7%,–
COc1ccc(NC(=O)CSc2nnc(-c3nonc3NC(C)=O)n2C)cc1Cl,inactive: -7.75%,–
Cc1ccc(-n2ccnc(NCCc3ccccc3)c2=O)cc1C,inactive: 31%,–
Cc1ccccc1-n1c2nc(=O)[nH]c(=O)c-2cc2c(Cl)cccc21,inactive: -0.0098%,–
Cc1ccc2[nH]c(CSc3nnc(C)s3)cc(=O)c2c1,inactive: -5.77%,–
COc1ccc(CCNC(=O)Cn2c(=O)nc(-c3ccccc3F)c3cc(Cl)ccc32)cc1OC,inactive: -1.91%,–
COC(=O)c1ccccc1NC(=O)CN(c1ccc(Cl)cc1)S(=O)(=O)c1ccc(OC)cc1,inactive: 26.5%,–
CCOC(=O)c1c(NC(=O)c2ccccc2C)sc2c1CCCC2,inactive: 6.14%,–
Cc1nc(-n2nc(C)c(CCC(C)C)c2C)sc1C(=O)Nc1cccc(Cl)c1C,inactive: 1.53%,–
O=C(CN1C(=O)COc2ccc(S(=O)(=O)N3CCCC3)cc21)NCCc1ccc(Cl)cc1,inactive: -0.307%,–
O=C(OCc1ccco1)c1ccc2c(c1)N(Cc1ccc([N+](=O)[O-])cc1)C(=O)c1ccccc1S2,inactive: 13%,–
Cn1nnnc1SCCCNCc1ccc(-c2cccc(Cl)c2)o1,inactive: 15%,–
Brc1ccc(-c2nc(N3CCN(c4ccccc4)CC3)c3ccccc3n2)cc1,inactive: -23.2%,–
CCOc1ccc2nc(N3CCN(C(=O)C(C)C)CC3)sc2c1,inactive: 0.408%,–
O=c1[nH]c2ccc(NS(=O)(=O)c3ccc(F)cc3)cc2s1,inactive: 2.43%,–
COc1ccc2oc(=O)cc(CN3CCN(C(=O)c4ccccc4Br)CC3)c2c1,inactive: -25.4%,–
Cc1ccc(SCC(=O)Nc2ccc3oc(-c4ccc(F)cc4)nc3c2)cc1,inactive: 8.73%,–
COc1ccc(C(=O)NCc2nnc(SCC(=O)Nc3ccc(C)cc3)n2-c2ccccc2)cc1,inactive: -1.94%,–
CCc1nc2nc(C)cc(Nc3cc(Cl)ccc3OC)n2n1,inactive: -16.6%,–
CCc1ccc(CNC(=O)c2ccc(NC(=O)N3CCSc4ncccc43)cc2)cc1,inactive: -2.11%,–
COc1cccc(CNC(=O)c2ccc3c(Cl)c4c(nc3c2)CCCC4)c1,inactive: 10.9%,–
Cc1cccc(N(C)C(=O)CS(=O)(=O)c2cccc3nsnc23)c1,inactive: 2.72%,–
CC(C)NC(=O)Cn1c(=O)nc(-c2ccccc2)c2ccccc21,inactive: 9.03%,–
CCOc1ccc(CCNC(=O)c2ccc(C)c(-n3cnc4cccnc43)c2)cc1,inactive: 2.01%,–
